# Test results taken from the GPR68 mutational scans of Howard et al. (2025).
# B1: GPR68, Q15743 (parent)
# chain: MGNITADNSSMSCTIDHTIHQTLAPVVYVTVLVVGFPANCLSLYFGYLQIKARNELGVYLCNLTVADLFYICSLPFWLQYVLQHDNWSHGDLSCQVCGILLYENIYISVGFLCCISVDRYLAVAHPFRFHQFRTLKAAVGVSVVIWAKELLTSIYFLMHEEVIEDENQHRVCFEHYPIQAWQRAINYYRFLVGFLFPICLLLASYQGILRAVRRSHGTQKSRKDQIQRLVLSTVVIFLACFLPYHVLLLVRSVWEASCDFAKGVFNAYHFSLLLTSFNCVADPVLYCFVSETTHRDLARLRGACLAFLTCSRTGRAREAYPLGAPEASGKSGAQGEEPELLTKLHPAFQTPNSPGSGGFPTGRLA
# How the values were obtained:
# [1] = variants of: B1; experiment: cAMP reporter score (Enrich2 score, wild type = 0); higher = more signal; HEK293T, FACS bins
# [2] = variants of: B1; experiment: surface expression score (Enrich2 score, wild type = 0); higher = more signal; HEK293T, FACS bins
Variant,cAMP reporter score ([1]; pH 5.5),cAMP reporter score ([1]; pH 6),"cAMP reporter score ([1]; pH 6, modulator: ogerin)","cAMP reporter score ([1]; pH 6.5, modulator: ogerin)",surface expression score [2]
MGNITADNSSMSCTIDHTIHQTLAPVVYVTVLVVGFPANCLSLYFGYLQIKARNELGVYLCNLTVADLFYICSLPFWLQYVLQHDNWSHGDLSCQVCGILLYENIYISVGFLCCISVDRYLAVAHPFRFHQFRTLKAAVGVSVVIWAKELLTSIYFLMHEEVIEDENQHRVCFEHYPIQAWQRAINYYRFLVGFLFPICLLLASYQGILRAVRRSHGTQKSRKDQIQRLVLSTVVIFLACFLPYHVLLLVRSVWEASCDFAKGVFNAYHFSLLLTSFNCVADPVLYCFVSETTHRDLARLRGACLAFLTCSRTGRAREAYPLGAPEASMKSGAQGEEPELLTKLHPAFQTPNSPGSGGFPTGRLA [G329M],0.67,1.43,1.41,0.433,0.239
MGNITADNSSMSCTIDHTIHQTLAPVVYVTVLVVGFPANCLSLYFGYLQIKARNELGVYLCNLTVADLFYICSLPFWLQYVLQHDNWSHGDLSCQVCGILLYENIYISVGFLCCISVDRYLAVAHPFRFHQFRTLKAAVGVSVVIWAKELLTSIYFLMHEEVIEDENQHRVCFEHYPIQAWQRAINYYRFLVGFLFPICLLLASYQGILRAVRRSHGTQKSRKDQIQRLVLSTVVIFLACFLPYHVLLLVRSVWEASCDFAKGVFNAYHFSLLLTSFNCVADPVLYCFVSETTHRDLARLRGACLAFLTCSRTGRAREAYPLGAPEASLKSGAQGEEPELLTKLHPAFQTPNSPGSGGFPTGRLA [G329L],1.55,0.884,1.59,2.37,1.4

# Scores whose standard error is large were omitted. Two further conditions of the source, in which the scores hardly spread, are not listed. In variant names, del marks residues removed and ins residues inserted between the two positions. For some of these results: The concentration of ogerin is not given here.
